The values that follow come from the antibiotic and cytotoxicity screens of Wong et al. (2023).

Experiment [1] relates to HSkMC (human skeletal muscle cells). The experiment in a line: cytotoxicity call (relative viability < 0.9). Conditions: 10 µM.
The subject of experiment [2] is HepG2. The experiment in a line: cytotoxicity call (relative viability < 0.9). Particulars: 10 µM.
Experiment [3] has as its system S. aureus RN4220. Put plainly: growth inhibition call (relative growth <= 0.2). Particulars: 50 µM.

Some of the results follow.

As to `COc1ccc2[nH]cc(CCN)c2c1`, the cytotoxicity call in experiment [1] and in experiment [2] was “inactive” each time. For the same compound, the growth inhibition call in experiment [3] is “inactive”.

For `O=c1[nH]c(=O)n(Cl)c(=O)n1Cl`, the cytotoxicity call in experiment [1] and in experiment [2] was “inactive” throughout. Moreover, the growth inhibition call in experiment [3] is “inactive”.

For the compound `COC(=O)C[C@H]1CC[C@H]2NC[C@@H](O)COC[C@@H]2O1`, the cytotoxicity call in experiment [1] and in experiment [2] was “inactive” in each case. In addition, the growth inhibition call in experiment [3] was “inactive”.

Turning to `NCc1cccnc1`, the cytotoxicity call in experiment [1] and in experiment [2] was “inactive” each time. Further, the growth inhibition call in experiment [3] was “inactive”.

`O=C(NC(=O)c1c(F)cccc1F)Nc1ccc(Cl)cc1`: the cytotoxicity call in experiment [1] and in experiment [2] was “inactive” each time. Further, the growth inhibition call in experiment [3] was “inactive”.

`CN1[C@H](CO)[C@H]2c3ccccc3NC[C@H]21`: the cytotoxicity call in experiment [1] and in experiment [2] was “inactive” throughout. Besides, in experiment [3], the growth inhibition call was “inactive”.

`CC(C)c1cc2c(c(O)c1O)C1(C(=O)O)CCCC(C)(C)C1CC2` (stereo unspecified): the cytotoxicity call in experiment [1] and in experiment [2] was “inactive” throughout. For the same compound, the growth inhibition call in experiment [3] was “inactive”.

For the compound `CC12CCC3C(CC=C4CC(O)CCC43C)C1CCC2=O` (stereo unspecified), the cytotoxicity call in experiment [1] and in experiment [2] was “inactive” in each case. Also, the growth inhibition call in experiment [3] is “inactive”.

As to `C[C@@H]1[C@H](O)[C@@H](C)/C=C\C=C/CC\C=C/C=C\C=C/C=C\[C@H](O[C@@H]2O[C@H](C)[C@@H](O)[C@H](N)[C@@H]2O)C[C@@H]2O[C@](O)(C[C@@H](O)[C@H](O)CC[C@@H](O)C[C@@H](O)C[C@@H](O)CC(=O)O[C@H]1C)C[C@H](O)[C@H]2C(=O)O`, the cytotoxicity call in experiment [1] and in experiment [2] was “inactive” in each case. Further, the growth inhibition call in experiment [3] is “inactive”.

As for `O=c1n(Cl)c(=O)n(Cl)c(=O)n1Cl`, the cytotoxicity call in experiment [1] and in experiment [2] was “inactive” each time. Further, the growth inhibition call in experiment [3] was “inactive”.

`COc1cc(C(=O)O)cc(OC)c1OC`: the cytotoxicity call in experiment [1] and in experiment [2] was “inactive” each time. Moreover, in experiment [3], the growth inhibition call is “inactive”.

Take `CC1=C2C(=COC(C)C2C)C(O)=C(C(=O)O)C1=O` (stereo unspecified): the cytotoxicity call in experiment [1] and in experiment [2] was “inactive” in each case. Further, the growth inhibition call in experiment [3] is “inactive”.

As to `CN(C)C(=O)CCC(=O)N1C[C@H]2C[C@@H]1CN2`, the cytotoxicity call in experiment [1] and in experiment [2] was “inactive” throughout. Further, the growth inhibition call in experiment [3] was “inactive”.

With `CC(C)(C)C(=O)C(Oc1ccc(Cl)cc1)n1cncn1` (stereo unspecified), the cytotoxicity call in experiment [1] and in experiment [2] was “inactive” each time. In experiment [3], the growth inhibition call is “inactive”.

`C#CC(C)(O)CC` (stereo unspecified): the cytotoxicity call in experiment [1] and in experiment [2] was “inactive” throughout. In experiment [3], the growth inhibition call was “inactive”.

Take `COc1c(C[C@@H](C)O)c2c3c(C[C@@H](C)O)c(OC)c(=O)c4c(O)cc5c(c6c(cc(O)c(c1=O)c62)OCO5)c43`: the cytotoxicity call in experiment [1] and in experiment [2] was “active” throughout. Further, in experiment [3], the growth inhibition call is “inactive”.

For the compound `CC1(C)OCC2(CNC2)CO1`, the cytotoxicity call in experiment [1] and in experiment [2] was “inactive” each time. The growth inhibition call in experiment [3] was “inactive”.

On to `Clc1cc2c(cc1Cl)Oc1cc(Cl)c(Cl)cc1O2`, for which the cytotoxicity call in experiment [1] and in experiment [2] was “inactive” in each case. In experiment [3], the growth inhibition call is “inactive”.

For the compound `O=C(NC(=O)c1c(F)cccc1F)Nc1cc(Cl)c(OC(F)(F)C(F)C(F)(F)F)cc1Cl` (stereo unspecified), the cytotoxicity call in experiment [1] was “inactive”. Moreover, the cytotoxicity call in experiment [2] is “active”. The growth inhibition call in experiment [3] is “inactive”.

Turning to `O=c1cccc2n1C[C@@H]1C[C@H]2CN(CCO)C1`, the cytotoxicity call in experiment [1] and in experiment [2] was “inactive” in each case. For the same compound, the growth inhibition call in experiment [3] is “inactive”.

Take `C[C@@H]1CN([C@@H](C)CO)C(=O)CCCn2nncc2CO[C@@H]1CN(C)C(=O)Oc1ccc2ccccc2c1`: the cytotoxicity call in experiment [1] and in experiment [2] was “inactive” each time. Also, in experiment [3], the growth inhibition call was “inactive”.

As for `O=C1NCC2(CNC2)O1`, the cytotoxicity call in experiment [1] and in experiment [2] was “inactive” throughout. Moreover, the growth inhibition call in experiment [3] is “inactive”.

For `N[C@H]1C[C@@H]1c1ccccc1`, the cytotoxicity call in experiment [1] and in experiment [2] was “inactive” each time. Moreover, in experiment [3], the growth inhibition call is “inactive”.

For the compound `CC1C(=O)OC2CCN3CC=C(COC(=O)C(C)(O)C1(C)O)C23` (stereo unspecified), the cytotoxicity call in experiment [1] and in experiment [2] was “inactive” in each case. Further, the growth inhibition call in experiment [3] is “inactive”.

Consider `C1COC2(CCOCC2)CN1`, for which the cytotoxicity call in experiment [1] and in experiment [2] was “inactive” each time. For the same compound, the growth inhibition call in experiment [3] is “inactive”.

Regarding `Cl.c1ccc2c(c1)OCC(C1=NCCN1)O2` (stereo unspecified), in experiment [1], the cytotoxicity call was “inactive”. Further, the cytotoxicity call in experiment [2] was “active”. Also, the growth inhibition call in experiment [3] was “inactive”.

`CO[C@@H]1[C@H](OC(=O)NC(=O)CCl)CC[C@]2(CO2)[C@H]1[C@@]1(C)O[C@@H]1CC=C(C)C`: the cytotoxicity call in experiment [1] and in experiment [2] was “inactive” each time. In addition, the growth inhibition call in experiment [3] was “inactive”.

In the case of `[N-]=[N+]=NCc1ccccc1C[C@]1(C(=O)N2CCCCC2)N=C(c2ccc(OCCCO)cc2)O[C@H]1c1ccccc1N=[N+]=[N-]`, the cytotoxicity call in experiment [1] was “inactive”. Also, in experiment [2], the cytotoxicity call is “active”. Further, the growth inhibition call in experiment [3] was “inactive”.

As for `C[C@H]1CN([C@@H](C)CO)C(=O)CCCn2nncc2CO[C@@H]1CN(C)C(=O)Oc1ccc2ccccc2c1`, the cytotoxicity call in experiment [1] and in experiment [2] was “inactive” in each case. In addition, the growth inhibition call in experiment [3] is “inactive”.

For the compound `NN=C(N)N`, the cytotoxicity call in experiment [1] and in experiment [2] was “inactive” in each case. For the same compound, the growth inhibition call in experiment [3] was “inactive”.

As to `c1cc(N2CCNCC2)ccn1`, the cytotoxicity call in experiment [1] and in experiment [2] was “inactive” in each case. Further, the growth inhibition call in experiment [3] is “inactive”.

Turning to `NC(=O)c1cn([C@H]2O[C@@H](CO)[C@H](O)[C@@H]2O)c2ncnc(N)c12`, the cytotoxicity call in experiment [1] and in experiment [2] was “active” throughout. In addition, the growth inhibition call in experiment [3] was “inactive”.

With `O=C1NCc2cnnn2-c2ccccc21`, the cytotoxicity call in experiment [1] and in experiment [2] was “inactive” each time. Moreover, in experiment [3], the growth inhibition call is “inactive”.

Regarding `C[C@H](CO)N1C[C@H](C)[C@H](CN(C)C(=O)Oc2ccc3ccccc3c2)OCc2cnnn2CCCC1=O`, the cytotoxicity call in experiment [1] and in experiment [2] was “inactive” throughout. The growth inhibition call in experiment [3] was “inactive”.

Take `NCCc1ccccn1`: the cytotoxicity call in experiment [1] and in experiment [2] was “inactive” each time. Moreover, the growth inhibition call in experiment [3] was “inactive”.

For `CC1(C)C(O)CC(=O)C2(C)C1CC(=O)C1(C)C2CCC2(C)C(c3ccoc3)OC(=O)C3OC321` (stereo unspecified), the cytotoxicity call in experiment [1] and in experiment [2] was “inactive” throughout. Also, the growth inhibition call in experiment [3] was “inactive”.

For the compound `O=S(=O)(O)O.Oc1cccc2cccnc12`, in experiment [1], the cytotoxicity call was “inactive”. In addition, the cytotoxicity call in experiment [2] was “active”. For the same compound, the growth inhibition call in experiment [3] was “inactive”.

As for `CO[C@H]1[C@H]2CC[C@@H]1NC2`, the cytotoxicity call in experiment [1] and in experiment [2] was “inactive” each time. Besides, the growth inhibition call in experiment [3] was “inactive”.

`CC(C)C[C@@H]1C(=O)N2CCC[C@@H]2[C@]2(O)O[C@@](NC(=O)[C@@H]3C=C4c5cccc6[nH]cc(c56)C[C@@H]4N(C)C3)(C(C)C)C(=O)N12`: the cytotoxicity call in experiment [1] and in experiment [2] was “inactive” each time. In experiment [3], the growth inhibition call was “inactive”.

Consider `C[C@@H]1C(=O)NC[C@H]2CN(CC3CC3)C[C@@H]21`, for which the cytotoxicity call in experiment [1] and in experiment [2] was “inactive” in each case. Moreover, in experiment [3], the growth inhibition call is “inactive”.

With `O=C1C=C2C(=CCOC2O)O1` (stereo unspecified), the cytotoxicity call in experiment [1] and in experiment [2] was “active” each time. In experiment [3], the growth inhibition call is “active”.

In the case of `O=C1NC(=S)NC(=O)C1=Cc1ccccc1`, the cytotoxicity call in experiment [1] and in experiment [2] was “inactive” in each case. Besides, the growth inhibition call in experiment [3] was “inactive”.
